# Test results reported in the supplement of paper PMC11876631.
# ± gives the standard deviation of the averaged measurements. Laboratory Escherichia coli strains with one amino-acid change in an essential protein, pooled on minimal glucose agar with carbenicillin or gentamicin at twice the control MIC (plus kanamycin and chloramphenicol for the plasmids), 48 h. Fold change of barcode share against drug-free plates; higher = less susceptible. Active = above 20 in both replicates (the paper's putatively resistant). '<' = one read or none on drug, '>' = one read or none on a drug-free plate. Shares are relative, so most strains fall below 1 when a few take over. Listed are strains with at least 15 reads on both drug-free plates, and hits; most hits rest on fewer reference reads. Replicate rank correlation about 0.5. Edits are read from barcodes.
# B1: plsB L479A (protein)
# chain: MSGWPRIYYKLLNLPLSILVKSKSIPADPAPELGLDTSRPIMYVLPYNSKADLLTLRAQCLAHDLPDPLEPLEIDGTLLPRYVFIHGGPRVFTYYTPKEESIKLFHDYLDLHRSNPNLDVQMVPVSVMFGRAPGREKGEVNPPLRMLNGVQKFFAVLWLGRDSFVRFSPSVSLRRMADEHGTDKTIAQKLARVARMHFARQRLAAVGPRLPARQDLFNKLLASRAIAKAVEDEARSKKISHEKAQQNAIALMEEIAANFSYEMIRLTDRILGFTWNRLYQGINVHNAERVRQLAHDGHELVYVPCHRSHMDYLLLSYVLYHQGLVPPHIAAGINLNFWPAGPIFRRLGAFFIRRTFKGNKLYSTVFREYLGELFSRGYSVEYFVEGGRSRTGRLLDPKTGTLSMTIQAMLRGGTRPITLIPIYIGYEHVMEVGTYAKELRGATKEKESLPQMLRGLSKLRNLGQGYVNFGEPMPLMTYANQHVPDWRESIDPIEAVRPAWLTPTVNNIAADLMVRINNAGAANAMNLCCTALLASRQRSLTREQLTEQLNCYLDLMRNVPYSTDSTVPSASASELIDHALQMNKFEVEKDTIGDIIILPREQAVLMTYYRNNIAHMLVLPSLMAAIVTQHRHISRDVLMEHVNVLYPMLKAELFLRWDRDELPDVIDALANEMQRQGLITLQDDELHINPAHSRTLQLLAAGARETLQRYAITFWLLSANPSINRGTLEKESRTVAQRLSVLHGINAPEFFDKAVFSSLVLTLRDEGYISDSGDAEPAETMKVYQLLAELITSDVRLTIESATQGEG
# B2: plsB L479W (protein)
# chain: MSGWPRIYYKLLNLPLSILVKSKSIPADPAPELGLDTSRPIMYVLPYNSKADLLTLRAQCLAHDLPDPLEPLEIDGTLLPRYVFIHGGPRVFTYYTPKEESIKLFHDYLDLHRSNPNLDVQMVPVSVMFGRAPGREKGEVNPPLRMLNGVQKFFAVLWLGRDSFVRFSPSVSLRRMADEHGTDKTIAQKLARVARMHFARQRLAAVGPRLPARQDLFNKLLASRAIAKAVEDEARSKKISHEKAQQNAIALMEEIAANFSYEMIRLTDRILGFTWNRLYQGINVHNAERVRQLAHDGHELVYVPCHRSHMDYLLLSYVLYHQGLVPPHIAAGINLNFWPAGPIFRRLGAFFIRRTFKGNKLYSTVFREYLGELFSRGYSVEYFVEGGRSRTGRLLDPKTGTLSMTIQAMLRGGTRPITLIPIYIGYEHVMEVGTYAKELRGATKEKESLPQMLRGLSKLRNLGQGYVNFGEPMPLMTYWNQHVPDWRESIDPIEAVRPAWLTPTVNNIAADLMVRINNAGAANAMNLCCTALLASRQRSLTREQLTEQLNCYLDLMRNVPYSTDSTVPSASASELIDHALQMNKFEVEKDTIGDIIILPREQAVLMTYYRNNIAHMLVLPSLMAAIVTQHRHISRDVLMEHVNVLYPMLKAELFLRWDRDELPDVIDALANEMQRQGLITLQDDELHINPAHSRTLQLLAAGARETLQRYAITFWLLSANPSINRGTLEKESRTVAQRLSVLHGINAPEFFDKAVFSSLVLTLRDEGYISDSGDAEPAETMKVYQLLAELITSDVRLTIESATQGEG
# B3: plsB V505Q (protein)
# chain: MSGWPRIYYKLLNLPLSILVKSKSIPADPAPELGLDTSRPIMYVLPYNSKADLLTLRAQCLAHDLPDPLEPLEIDGTLLPRYVFIHGGPRVFTYYTPKEESIKLFHDYLDLHRSNPNLDVQMVPVSVMFGRAPGREKGEVNPPLRMLNGVQKFFAVLWLGRDSFVRFSPSVSLRRMADEHGTDKTIAQKLARVARMHFARQRLAAVGPRLPARQDLFNKLLASRAIAKAVEDEARSKKISHEKAQQNAIALMEEIAANFSYEMIRLTDRILGFTWNRLYQGINVHNAERVRQLAHDGHELVYVPCHRSHMDYLLLSYVLYHQGLVPPHIAAGINLNFWPAGPIFRRLGAFFIRRTFKGNKLYSTVFREYLGELFSRGYSVEYFVEGGRSRTGRLLDPKTGTLSMTIQAMLRGGTRPITLIPIYIGYEHVMEVGTYAKELRGATKEKESLPQMLRGLSKLRNLGQGYVNFGEPMPLMTYLNQHVPDWRESIDPIEAVRPAWLTPTQNNIAADLMVRINNAGAANAMNLCCTALLASRQRSLTREQLTEQLNCYLDLMRNVPYSTDSTVPSASASELIDHALQMNKFEVEKDTIGDIIILPREQAVLMTYYRNNIAHMLVLPSLMAAIVTQHRHISRDVLMEHVNVLYPMLKAELFLRWDRDELPDVIDALANEMQRQGLITLQDDELHINPAHSRTLQLLAAGARETLQRYAITFWLLSANPSINRGTLEKESRTVAQRLSVLHGINAPEFFDKAVFSSLVLTLRDEGYISDSGDAEPAETMKVYQLLAELITSDVRLTIESATQGEG
# B4: plsB V505A (protein)
# chain: MSGWPRIYYKLLNLPLSILVKSKSIPADPAPELGLDTSRPIMYVLPYNSKADLLTLRAQCLAHDLPDPLEPLEIDGTLLPRYVFIHGGPRVFTYYTPKEESIKLFHDYLDLHRSNPNLDVQMVPVSVMFGRAPGREKGEVNPPLRMLNGVQKFFAVLWLGRDSFVRFSPSVSLRRMADEHGTDKTIAQKLARVARMHFARQRLAAVGPRLPARQDLFNKLLASRAIAKAVEDEARSKKISHEKAQQNAIALMEEIAANFSYEMIRLTDRILGFTWNRLYQGINVHNAERVRQLAHDGHELVYVPCHRSHMDYLLLSYVLYHQGLVPPHIAAGINLNFWPAGPIFRRLGAFFIRRTFKGNKLYSTVFREYLGELFSRGYSVEYFVEGGRSRTGRLLDPKTGTLSMTIQAMLRGGTRPITLIPIYIGYEHVMEVGTYAKELRGATKEKESLPQMLRGLSKLRNLGQGYVNFGEPMPLMTYLNQHVPDWRESIDPIEAVRPAWLTPTANNIAADLMVRINNAGAANAMNLCCTALLASRQRSLTREQLTEQLNCYLDLMRNVPYSTDSTVPSASASELIDHALQMNKFEVEKDTIGDIIILPREQAVLMTYYRNNIAHMLVLPSLMAAIVTQHRHISRDVLMEHVNVLYPMLKAELFLRWDRDELPDVIDALANEMQRQGLITLQDDELHINPAHSRTLQLLAAGARETLQRYAITFWLLSANPSINRGTLEKESRTVAQRLSVLHGINAPEFFDKAVFSSLVLTLRDEGYISDSGDAEPAETMKVYQLLAELITSDVRLTIESATQGEG
# Target: Escherichia coli (laboratory strain)
# Assay: barcode share on antibiotic plates over drug-free plates; higher = less susceptible
# Conditions: antibiotic: carbenicillin; 2× MIC (3.1 µg/mL)
# Protocol: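 A pool of E. coli strains, each edited to carry one amino-acid change in an essential protein, was grown for 48 h on minimal glucose agar with or without antibiotic; strain barcodes were sequenced; mean of two replicates.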
row,Protein,fold change of barcode share
1,B1,0.379 ± 0.061
2,B2,0.918 ± 0.36
3,B3,0.249 ± 0.081
4,B4,0.473 ± 0.2

# Same assay, conditions: antibiotic: gentamicin; 2× MIC (MIC 0.45 µg/mL)
row,Protein,fold change of barcode share
1,B1,0.00506 ± 0.0021
2,B2,0.00425 ± 0.0014
3,B3,0.0062 ± 0.0044
4,B4,0.0112 ± 0.014
